Experimental data from paper PMC5700166.
This is a selection; strong and weak results do not stand in their true shares. The list includes weakly bound sequences.

Biological target: T1, GST-Co-NF-kB (UniProt F1ARL5)
T1 sequence: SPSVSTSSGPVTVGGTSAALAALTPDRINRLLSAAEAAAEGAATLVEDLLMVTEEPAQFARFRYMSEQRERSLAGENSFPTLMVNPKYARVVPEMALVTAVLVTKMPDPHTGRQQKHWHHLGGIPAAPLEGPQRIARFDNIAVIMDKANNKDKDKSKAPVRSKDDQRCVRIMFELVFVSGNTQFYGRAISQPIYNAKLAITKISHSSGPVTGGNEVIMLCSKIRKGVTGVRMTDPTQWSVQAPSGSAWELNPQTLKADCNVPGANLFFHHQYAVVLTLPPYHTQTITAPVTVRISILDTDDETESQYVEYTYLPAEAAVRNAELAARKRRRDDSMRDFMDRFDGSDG
Assay: protein-binding microarray (PBM)
Settings: PBM: ~300 nM protein, 6 mM HEPES pH 7.8, 80 mM KCl, 0.5 mM EDTA, 0.5 mM EGTA, 6% glycerol, 35 ng/ul poly-dIdC, 1% milk, 1 h, room temperature; Ap Aiptasia and Nv Nematostella (sea anemones) / Co Capsaspora / Aq Amphimedon (sponge) / Dm Drosophila / Hu human; RHD is the Rel homology domain; high values mean tight binding; most listed sequences are background and not binding sites; double strand, one strand shown

| Sequence | binding signal |
| --- | --- |
| CCGATTAACATCAATGGGAAAATTGATGTTAATCGGGTCTTGATTCGCTTGACGCTGCTG | 3.46 z-score |
| CCGATTAACATCACGGGTTTTTCTGATGTTAATCGGGTCTTGATTCGCTTGACGCTGCTG | 0.785 z-score |
| CCGATTAACATCAAGTAAATCCCTGATGTTAATCGGGTCTTGATTCGCTTGACGCTGCTG | 1.22 z-score |
| CCGATTAACATCAGGAATACCCCTGATGTTAATCGGGTCTTGATTCGCTTGACGCTGCTG | 4.14 z-score |
| CCGATTAACATCAGGGACTCACCTGATGTTAATCGGGTCTTGATTCGCTTGACGCTGCTG | 0.315 z-score |
| CCGATTAACATCAAGAAAACCCCTGATGTTAATCGGGTCTTGATTCGCTTGACGCTGCTG | 2.44 z-score |
| CCGATTAACATCAAGGGAATACCTGATGTTAATCGGGTCTTGATTCGCTTGACGCTGCTG | 2.25 z-score |
| CCGATTAACATCAGGGAATCTCATGATGTTAATCGGGTCTTGATTCGCTTGACGCTGCTG | 1.96 z-score |
| CCGATTAACATCACGGGGGGGAATGATGTTAATCGGGTCTTGATTCGCTTGACGCTGCTG | 9.46 z-score |
| CCGATTAACATCAACCCTCCCCCTGATGTTAATCGGGTCTTGATTCGCTTGACGCTGCTG | 4.5 z-score |
| CCGATTAACATCAGGGGGCACCCTGATGTTAATCGGGTCTTGATTCGCTTGACGCTGCTG | 2.17 z-score |
| CCGATTAACATCAGGGCATTACCTGATGTTAATCGGGTCTTGATTCGCTTGACGCTGCTG | -0.121 z-score |
| CCGATTAACATCAGAAGATTCCCTGATGTTAATCGGGTCTTGATTCGCTTGACGCTGCTG | 3.43 z-score |
| CCGATTAACATCAATTTTTCCCGTGATGTTAATCGGGTCTTGATTCGCTTGACGCTGCTG | 6.5 z-score |
| CCGATTAACATCAATTCCCAAGGTGATGTTAATCGGGTCTTGATTCGCTTGACGCTGCTG | 2.02 z-score |
| CCGATTAACATCAGGGGGAATTATGATGTTAATCGGGTCTTGATTCGCTTGACGCTGCTG | 9.25 z-score |
| CCGATTAACATCAGGGAATTCGATGATGTTAATCGGGTCTTGATTCGCTTGACGCTGCTG | 2.25 z-score |
| CCGATTAACATCACTAGTCCCCCTGATGTTAATCGGGTCTTGATTCGCTTGACGCTGCTG | 3.98 z-score |
| CCGATTAACATCAAAAAAACCCATGATGTTAATCGGGTCTTGATTCGCTTGACGCTGCTG | 1.87 z-score |
| CCGATTAACATCAGATTCCCCCCTGATGTTAATCGGGTCTTGATTCGCTTGACGCTGCTG | 10 z-score |

| Sequence | binding signal |
| --- | --- |
| CCGATTAACATCACGTTCCCCCCTGATGTTAATCGGGTCTTGATTCGCTTGACGCTGCTG | 9.5 z-score |
| CCGATTAACATCAGGGGGAGAACTGATGTTAATCGGGTCTTGATTCGCTTGACGCTGCTG | 7.22 z-score |
| CCGATTAACATCAGGGTTCCCCATGATGTTAATCGGGTCTTGATTCGCTTGACGCTGCTG | 5.37 z-score |
| CCGATTAACATCAAAGTTTCCCATGATGTTAATCGGGTCTTGATTCGCTTGACGCTGCTG | 4.66 z-score |
| CCGATTAACATCAGGGGGTTTGATGATGTTAATCGGGTCTTGATTCGCTTGACGCTGCTG | 1.61 z-score |
| CCGATTAACATCAGGGGTTTAACTGATGTTAATCGGGTCTTGATTCGCTTGACGCTGCTG | 0.864 z-score |
| CCGATTAACATCAAAAATTTACCTGATGTTAATCGGGTCTTGATTCGCTTGACGCTGCTG | 0.898 z-score |
| CCGATTAACATCAAAATTCCCTTTGATGTTAATCGGGTCTTGATTCGCTTGACGCTGCTG | 2.62 z-score |
| CCGATTAACATCAGGGATTCCACTGATGTTAATCGGGTCTTGATTCGCTTGACGCTGCTG | 0.567 z-score |
| CCGATTAACATCAACGAAACCCCTGATGTTAATCGGGTCTTGATTCGCTTGACGCTGCTG | 1.39 z-score |
| CCGATTAACATCAAATGACCCCCTGATGTTAATCGGGTCTTGATTCGCTTGACGCTGCTG | 2.98 z-score |
| CCGATTAACATCAGGGATTGCCCTGATGTTAATCGGGTCTTGATTCGCTTGACGCTGCTG | 0.903 z-score |
| CCGATTAACATCAGGGGGAGTTATGATGTTAATCGGGTCTTGATTCGCTTGACGCTGCTG | 7.05 z-score |
| CCGATTAACATCACTCTTTCCCCTGATGTTAATCGGGTCTTGATTCGCTTGACGCTGCTG | 6.1 z-score |
| CCGATTAACATCAGGGTATACCCTGATGTTAATCGGGTCTTGATTCGCTTGACGCTGCTG | 2.48 z-score |
| CCGATTAACATCAATCTCCCCCATGATGTTAATCGGGTCTTGATTCGCTTGACGCTGCTG | 8.65 z-score |
| CCGATTAACATCAGGGAGGCCCCTGATGTTAATCGGGTCTTGATTCGCTTGACGCTGCTG | 0.639 z-score |
| CCGATTAACATCAAGCCCCCCCTTGATGTTAATCGGGTCTTGATTCGCTTGACGCTGCTG | 3.04 z-score |
| CCGATTAACATCAGGCATCCCCCTGATGTTAATCGGGTCTTGATTCGCTTGACGCTGCTG | 3.74 z-score |
